Reference: PubChem BioAssay AID463173 (ICCB-Longwood Screening Facility, Harvard Medical School, 2010)
Hit rate of the full screen: of about 52,000 compounds, about 4,300 (8.3%) were called active. Rule as the data show it: active = survival mostly below about 52% (no sharp cut-off); inactive = mostly above about 56%. The list shows a part of the results.

Test system: DeltatarO mutant
Experiment: S. aureus survival, RN4220 and DeltatarO strains – OD600, teichoic acid synthesis inhibitors, primary screen (AID 463173)
Details: S. aureus RN4220 wild type/DeltatarO growth, OD600, 18 h, hits give low values, screened at 18.75 µg/mL (by protocol)

SMILES	survival
CCN(CC)C(=O)c1sc2c(c1C)c(=O)n(-c1ccc(OC)cc1OC)c(=O)n2CC(=O)c1ccc(Cl)cc1	inactive: 135%
CCn1cc(S(=O)(=O)c2ccccc2)c(=O)c2cc(F)c(N3CCN(c4ccccc4)CC3)cc21	inactive: 98%
O=C(Nc1ccc(OC(F)(F)F)cc1)C1CCN(S(=O)(=O)c2cccs2)CC1	active: 21%
COc1cc(NC(=O)c2oc3c(c2C)-c2nn(Cc4cccc(Cl)c4)cc2CC3)cc(OC)c1	inactive: 78%
CCOc1ccc(N(C(C)C(=O)Nc2cc(Cl)ccc2OC)S(C)(=O)=O)cc1 (centres undefined)	inactive: 52%
Cc1ccccc1CCN(Cc1cc2c(C)ccc(C)c2[nH]c1=O)C(=O)c1cnccn1	inactive: 98%
CN(C)c1ccc(/C=C(\C#N)c2nc(-c3ccc(Cl)c(Cl)c3)cs2)cc1	inactive: 76%
COc1cc(NC(=O)COCc2cc(-c3ccc4c(c3)OCO4)on2)cc(OC)c1	inactive: 118%
CC(C)Cn1c(=O)c2ccccc2n2c(CCC(=O)NC(C)c3ccccc3)nnc12 (centres undefined)	inactive: 87%
Cc1onc(-c2c(Cl)cccc2Cl)c1C(=O)n1c(C)nc2ccccc21	inactive: 86%
Cc1cc(C)c2nc(N(Cc3cccnc3)C(=O)c3cccs3)sc2c1	inactive: 81%
CCOc1ccc(C2C(C(=O)Nc3ccccc3)=C(C)Nc3nc(SCc4cc(C)ccc4C)nn32)cc1 (centres undefined)	inactive: 123%
N#Cc1ccc(C(=O)Nc2ccc3c(c2)N(C2CCCC2)C(=O)c2ccccc2S3)cc1	inactive: 94%
COc1ccc(Cl)cc1NC(=O)C1CC(=O)n2c(nc3ccccc32)N1 (centres undefined)	inactive: 90%
CCc1nn(CC(=O)Nc2ccc(N(CC)CC)cc2C)c(=O)c2cc3sccc3n12	inactive: 77%
CC(C)Sc1ncc(Cl)c(C(=O)N(Cc2ccc(N(C)C)cc2)C2CCS(=O)(=O)C2)n1 (centres undefined)	inactive: 69%
Cc1ccc(Cn2c(CN3CCC(C(=O)NCCc4ccccc4)CC3)cc3ccccc32)cc1	inactive: 85%
Cc1ccc(-c2noc(-c3ccccc3NC(=O)C3CC(=O)N(c4ccccc4C)C3)n2)cc1 (centres undefined)	inactive: 106%
CCn1ccc2c(OCC(=O)NCc3ccc(F)cc3)cccc2c1=O	inactive: 94%
O=C(NCCc1nc2ccccc2n1Cc1ccc(Cl)cc1Cl)c1ccco1	active: 49%
COc1ccc(Nc2nc3ccc(C)cc3nc2-n2nc(C)cc2C)cc1Cl	inactive: 69%
COc1ccccc1N1CCN(C(=O)Cn2ncc3c2-c2cc(C)ccc2OC3)CC1	inactive: 58%

SMILES	survival
COCCN1CCc2nc(SCC(=O)Nc3ccc(C)c(Cl)c3)[nH]c(=O)c2C1	inactive: 76%
COc1ccccc1NC(=O)CC1Sc2ccc(C(F)(F)F)cc2NC1=O (centres undefined)	inactive: 76%
CCOC(=O)c1cc2occc2n1CCc1ccccc1	inactive: 101%
O=C(NCCCN=C1NS(=O)(=O)c2ccccc21)c1ccncc1	inactive: 85%
Cc1ccc(-n2ncc(C(=O)Nc3ccc4c(c3)OCCO4)c2C2CCN(C(=O)OC(C)(C)C)CC2)cc1C	inactive: 87%
Oc1ccc(N=Cc2ccccc2O)cc1	inactive: 109%
O=C(NC1CCCC1)c1cc2sccc2n1Cc1ccccc1	inactive: 90%
COc1ccc(CNC(=O)c2cc(-c3ccc(Br)s3)nc3ccccc23)c(OC)c1	inactive: 70%
CCOC(=O)c1sc2ncn(CC(=O)Nc3ccc(F)cc3F)c(=O)c2c1C	inactive: 117%
COC(=O)c1c(NC(=O)c2ccc(Cl)c(Cl)c2)sc2c1CCCC2	inactive: 63%
CCOc1ccc(NC(=O)CSc2nnc3scc(-c4ccccc4)n23)cc1	active: 17%
COc1ccc(-c2onc(C)c2C)cc1S(=O)(=O)NCc1cccs1	inactive: 74%
CCOC(=O)c1noc2ncn(CC(=O)Nc3ccc(F)cc3Cl)c(=O)c12	active: -5%
Cc1ccc(OCCSc2nc3ccccc3n2CC(=O)N2CCOCC2)cc1	inactive: 96%
CC1=C(C(=O)OCc2ccc(C)cc2)C(c2ccccc2C(F)(F)F)CC(=O)N1 (centres undefined)	inactive: 124%
CC1CCCCN1Cc1c(O)ccc2c(=O)c(-c3ccc(Cl)cc3)c(C(F)(F)F)oc12 (centres undefined)	inactive: 138%
CCOc1ccc(C(=O)Nc2ccc3c(c2)CCCN3S(=O)(=O)c2ccc(C)cc2)cc1	inactive: 78%
Cc1ccc(C(c2nnnn2C(C)(C)C)N2CCC(C)CC2)cc1 (centres undefined)	inactive: 82%
COc1ccc(N(CC(=O)Nc2cc(OC)cc(OC)c2)S(=O)(=O)c2c(C)noc2C)cc1	active: 45%
COc1ccccc1-c1nnc(C2CCN(C(=O)c3ccccc3C)CC2)o1	inactive: 82%
Cc1cc2c(cc1S(=O)(=O)Nc1ccc(C(C)C)cc1)OCCN2C	inactive: 87%
Cc1ccc(O)c(NC(=O)CCS(=O)(=O)c2nc(-c3cccs3)cc(C(F)(F)F)n2)c1	inactive: 51%
